The whole screen tested about 310,000 compounds, of which about 14,000 (4.5%) showed an effect of 50% or more. The effect is printed as a negative number. The list shows a part of the results.
target: human ether-à-go-go-related gene (hERG) potassium channel (human, UniProt Q12809); assay: primary screen, population patch clamp on CHO cells stably expressing hERG
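Also: peak tail current of the secondary pulse compared with the same well before compound.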

human ether-à-go-go-related gene (hERG) potassium channel, sequence (Q12809 whole entry, looked up): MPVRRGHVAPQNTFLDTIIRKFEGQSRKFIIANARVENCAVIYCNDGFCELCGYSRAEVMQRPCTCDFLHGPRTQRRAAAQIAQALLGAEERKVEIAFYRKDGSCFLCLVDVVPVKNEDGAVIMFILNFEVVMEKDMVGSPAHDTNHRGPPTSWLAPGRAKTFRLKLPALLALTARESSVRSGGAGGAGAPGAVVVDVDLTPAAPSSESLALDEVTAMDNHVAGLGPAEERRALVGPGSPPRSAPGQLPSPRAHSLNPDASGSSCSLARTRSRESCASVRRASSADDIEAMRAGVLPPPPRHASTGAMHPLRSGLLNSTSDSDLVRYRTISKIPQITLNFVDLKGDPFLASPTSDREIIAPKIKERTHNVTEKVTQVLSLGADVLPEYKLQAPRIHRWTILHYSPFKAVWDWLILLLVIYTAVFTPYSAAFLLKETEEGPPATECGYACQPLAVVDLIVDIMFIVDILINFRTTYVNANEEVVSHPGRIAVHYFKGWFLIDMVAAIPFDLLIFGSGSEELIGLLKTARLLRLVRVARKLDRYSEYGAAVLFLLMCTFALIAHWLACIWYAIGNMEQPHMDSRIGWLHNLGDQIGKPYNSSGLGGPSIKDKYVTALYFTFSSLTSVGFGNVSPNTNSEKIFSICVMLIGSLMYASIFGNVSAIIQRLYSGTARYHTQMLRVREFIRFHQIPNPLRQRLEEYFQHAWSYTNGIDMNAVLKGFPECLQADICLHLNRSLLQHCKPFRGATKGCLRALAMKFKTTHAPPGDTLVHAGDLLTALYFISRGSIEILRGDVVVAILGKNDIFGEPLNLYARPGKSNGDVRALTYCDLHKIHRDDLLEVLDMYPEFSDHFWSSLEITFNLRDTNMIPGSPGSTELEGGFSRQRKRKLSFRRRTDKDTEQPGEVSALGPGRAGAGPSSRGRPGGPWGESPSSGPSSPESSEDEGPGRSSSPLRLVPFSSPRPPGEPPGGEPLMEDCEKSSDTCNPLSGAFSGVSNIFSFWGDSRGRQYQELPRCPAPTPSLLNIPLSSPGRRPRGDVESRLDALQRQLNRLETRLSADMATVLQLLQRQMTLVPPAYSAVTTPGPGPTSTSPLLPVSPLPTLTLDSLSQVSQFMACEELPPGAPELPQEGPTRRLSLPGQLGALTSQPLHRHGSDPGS

| Structure (SMILES) | hERG current change (%, negative = inhibition) at 10uM [%] |
| --- | --- |
| CC(C)(C)C(=O)COC(=O)c1cc(S(=O)(=O)N2CCCCC2)ccc1N1CCOCC1 | -2.33 |
| Cc1ccccc1C(=O)NC1CCN(C(=O)N(c2ccccc2)c2ccccc2)CC1 | -1.11 |
| O=C(COC(=O)c1ccccn1)c1cccc(Br)c1 | 7.53 |
| Cc1ccc(NS(=O)(=O)c2c(C)nc3sccn3c2=O)c(C)c1 | -15.2 |
| CC(C)CC(C(=O)N1CCc2ccccc2C1)N1C(=O)c2ccccc2C1=O (centres unmarked) | -50.3 |
| COc1cccc(C(=O)COC(=O)C2CC3CCCC(C2)C3=O)c1 (centres unmarked) | 1.23 |
| Cc1nnc(NC(=O)C2CSC3(C)CCC(=O)N23)s1 (centres unmarked) | 1.86 |
| Nc1ccc(Cl)c(S(=O)(=O)Nc2ccccc2Cl)c1 | -5.52 |
| COC(=O)CN1CC(=O)N(c2ccccc2)C1=S | 20.1 |
| N#Cc1ccc(N/N=C/c2ccccc2)c([N+](=O)[O-])c1 | 11.1 |
| O=C(NCc1cc([N+](=O)[O-])ccc1O)c1cccnc1Sc1ccc(Cl)cc1 | 25.2 |
| COC(=O)c1ccccc1NC(=S)NC(=O)C1CC1 | -49 |
| COc1ccc(CCNc2oc(COc3ccc(Br)cc3)nc2C#N)cc1OC | -3.83 |
| COc1ccc(C(=O)COC(=O)Cc2c[nH]c3ccccc23)c(OC)c1 | 4.87 |
| O=C(O)C1CC=CCC1C(=O)Nc1ccc(Oc2ccc(Cl)cc2)cc1 (centres unmarked) | 7.55 |
| CCOc1ccc(N(CC(=O)NCCc2ccccc2)C(=O)CCC(=O)Nc2nccs2)cc1 | -18.9 |
| COc1ccc(N2C(=O)NC(=O)/C(=C/c3ccc([N+](=O)[O-])s3)C2=O)cc1 | 14.1 |
| O=C(Cc1ccc(N(CCCl)CCCl)cc1)NC(Cc1ccc(Cl)cc1)C(=O)O (centres unmarked) | 10.2 |
| CCn1c(SCC(=O)NCc2ccco2)nnc1-c1ccc(N)cc1 | 1.5 |
| CCCN1CN(c2ccccc2)C(=S)N(c2ccccc2)C1 | 15.5 |
| COCCN1C(=O)c2oc3cc(C)c(C)cc3c(=O)c2C1c1ccc(O)cc1 (centres unmarked) | 17.4 |
| O=C(N/C=C/c1ccc(Cl)cc1)NCc1ccc(Cl)cc1 | 7.66 |

| Structure (SMILES) | hERG current change (%, negative = inhibition) at 10uM [%] |
| --- | --- |
| O=C(CN1CCCC1c1cccs1)Nc1cccc(S(=O)(=O)N2CCCC2)c1 (centres unmarked) | -0.843 |
| COc1cc(CCC(=O)OCC(=O)Nc2cccc(S(N)(=O)=O)c2)cc(OC)c1OC | 19.6 |
| COc1ccc(N(CC(=O)NC2CCCCC2)S(=O)(=O)c2c(C)[nH]c(=O)[nH]c2=O)cc1 | 16.2 |
| CCC1CCC2(CC1)NC(=O)N(CC(=O)Nc1cccc(S(=O)(=O)N(C)c3ccccc3)c1)C2=O (centres unmarked) | -5.29 |
| N#Cc1c2n(c3c(=O)n(Cc4ccc(Cl)cc4)cnc13)CCCC2 | -33.9 |
| C/C(=N\NC(=S)Nc1ccccc1)c1c(O)n(C)c(=O)n(C)c1=O | 22.5 |
| CCOC(=O)C1CCN(c2ccc([N+](=O)[O-])cc2)CC1 | -68.9 |
| CCOCCCNc1nc(=S)[nH]c2cc(OC)c(OC)cc12 | -5.74 |
| COc1cc(NC(=O)CSc2ccc3c(c2)OCCO3)cc(OC)c1OC | 6.48 |
| O=C(O)C(F)(F)S(=O)(=O)O | 18.6 |
| CCCCCCCc1nc2c(=O)n(C)c3ccccc3c2o1 | 4.63 |
| Cc1nc2ccccc2c(=O)n1/N=C/c1ccccc1OC(F)F | 20 |
| O=C(NNC(=O)C1CC=CCC1)c1ccccc1O (centres unmarked) | -4.58 |
| COc1ccc(NC(=O)C2CC(=O)N(c3ccccc3Cl)C2)c(OC)c1 (centres unmarked) | -6.36 |
| C(=N\N1CCOCC1)/c1nc(-c2ccccc2)n2ccccc12 | -7.67 |
| Cc1occc1C(=O)N1CCCC(CCC(=O)NCc2ccc(F)c(F)c2)C1 (centres unmarked) | -4.76 |
| O=C(Nc1nccs1)C1CCCN1/C=C/C(=O)C(F)(F)F (centres unmarked) | 13.9 |
| COc1cc2c(cc1OC)CN(CC(=O)Nc1ccccc1C(=O)NC1CC1)CC2 | -24.5 |
| CN1CCN(c2ccc(CNS(=O)(=O)c3cccc(F)c3)cc2)CC1 | -3.36 |
| CCOC(=O)C1CCN(c2ccc(C(N)=O)cc2[N+](=O)[O-])CC1 | 9.94 |
| N=C1C(c2ccccc2)=C(O)CN1c1cccc(S(N)(=O)=O)c1 | 10.1 |
| COc1cc(NC(=O)c2cc3ccccc3cc2O)c(OC)cc1Cl | 28.9 |
